Assay results from PMC4336329 (PLoS ONE, 2015).
About 14,000 (4.5%) of roughly 310,000 compounds showed an effect of 50% or more. Effects have a minus sign here. This is one part of the list.

What follows are compounds tested against human ether-à-go-go-related gene (hERG) potassium channel (human, UniProt Q12809) (assay: primary screen, population patch clamp on CHO cells stably expressing hERG).
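Also: peak tail current of the secondary pulse compared with the same well before compound.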

human ether-à-go-go-related gene (hERG) potassium channel, sequence (Q12809 whole entry, looked up): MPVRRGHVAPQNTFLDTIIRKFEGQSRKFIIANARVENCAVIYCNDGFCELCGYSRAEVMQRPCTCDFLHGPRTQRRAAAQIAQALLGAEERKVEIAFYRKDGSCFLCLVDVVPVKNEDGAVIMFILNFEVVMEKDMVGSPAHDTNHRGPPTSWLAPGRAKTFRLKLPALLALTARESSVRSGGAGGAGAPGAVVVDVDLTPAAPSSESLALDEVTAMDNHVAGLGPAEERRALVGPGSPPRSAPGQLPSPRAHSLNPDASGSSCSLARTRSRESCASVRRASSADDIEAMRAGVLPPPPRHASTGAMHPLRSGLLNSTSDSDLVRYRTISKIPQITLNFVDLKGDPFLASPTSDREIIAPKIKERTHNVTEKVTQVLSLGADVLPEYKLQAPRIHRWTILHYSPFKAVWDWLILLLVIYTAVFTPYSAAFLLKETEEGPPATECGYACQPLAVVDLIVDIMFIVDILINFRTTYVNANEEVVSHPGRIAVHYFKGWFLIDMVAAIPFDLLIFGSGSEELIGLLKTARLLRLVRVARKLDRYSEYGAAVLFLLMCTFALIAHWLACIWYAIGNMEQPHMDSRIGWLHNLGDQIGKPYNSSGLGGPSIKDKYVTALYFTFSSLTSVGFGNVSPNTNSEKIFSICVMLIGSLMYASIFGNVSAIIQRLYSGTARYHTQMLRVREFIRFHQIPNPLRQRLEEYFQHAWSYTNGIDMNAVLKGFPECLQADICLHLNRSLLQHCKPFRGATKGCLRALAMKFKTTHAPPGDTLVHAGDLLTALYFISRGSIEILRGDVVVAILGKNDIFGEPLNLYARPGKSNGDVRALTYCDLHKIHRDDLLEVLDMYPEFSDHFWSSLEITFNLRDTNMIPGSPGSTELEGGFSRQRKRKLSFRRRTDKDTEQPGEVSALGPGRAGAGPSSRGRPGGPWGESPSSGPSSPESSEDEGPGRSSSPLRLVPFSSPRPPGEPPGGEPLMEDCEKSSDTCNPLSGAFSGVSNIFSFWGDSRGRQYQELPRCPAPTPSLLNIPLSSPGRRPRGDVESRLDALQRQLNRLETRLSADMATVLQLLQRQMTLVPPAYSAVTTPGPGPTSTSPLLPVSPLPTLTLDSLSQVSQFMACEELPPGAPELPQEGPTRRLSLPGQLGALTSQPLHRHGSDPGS

| SMILES | hERG current change (%, negative = inhibition) at 10uM |
| --- | --- |
| CN(/N=C/c1ccc(C(C)(C)C)cc1)C1=NCCN1 | -71.6% |
| CCOc1ccc(NC(=O)CC2C(=O)N(c3ccc(OC)c(Cl)c3)C(=S)N2C2CC2)cc1 (stereo not shown) | -1.88% |
| CN1CCN(c2ccccc2NC(=O)c2ccc(-c3ccccc3)cc2)CC1 | -31.6% |
| CCOC(=O)c1cc[nH]c1C | 24.4% |
| Cc1ccc(-c2nc(=S)c3c(n2Cc2ccco2)CC(C)(C)OC3)cc1 | -18.2% |
| O=c1c2nnn(-c3ccc(Br)cc3)c2ncn1Cc1ccccn1 | -32.8% |
| NNC(=O)CN(CCc1ccccc1)S(=O)(=O)c1ccc(Cl)cc1 | -18.3% |
| CC(C)(C)OC(=O)CNC(=O)c1[nH]cnc1C(=O)Nc1ccc(Cl)cc1 | 20.4% |
| Cc1nc2oc3ccc(F)cc3c(=O)c2cc1C(=O)O | 5.61% |
| COc1ccc(S(=O)(=O)NC2CCSc3ccccc32)cc1NC(C)=O (stereo not shown) | 0.452% |
| CN1CCN(C2=Cc3ccccc3Sc3cc(F)ccc32)CC1.O=C(O)/C=C\C(=O)O | -62.8% |
| CC(=O)NC(c1cccs1)c1cc(F)c2cccnc2c1O (stereo not shown) | 11.4% |
| COc1ccc(OC)c(-c2csc(CCn3nc(C)cc3C)n2)c1 | 3.06% |
| COc1ccc(Cl)cc1NC(=O)COC(=O)CCNC(C)=O | -1.91% |
| CCN(CC)CCOC(=O)c1cccc(Cl)c1.Cl | -32.4% |
| Cc1ccnc(SCc2cc(=O)c(OC(=O)c3ccccc3)co2)n1 | 9.02% |
| COCCNC(=O)CN1CCCCCC1.Cl | 25.7% |
| CCc1ccc(NC(=S)N2CCC(NC(=O)C3CCCCC3)CC2)cc1 | 19.9% |
| CCN1CCN(CC(=O)c2c[nH]c3ccc(C)cc23)CC1 | -4.16% |
| O=C(NCC12CC3CC(C1)CC(CNC(=O)N1CCCC1)(C3)C2)N1CCCC1 | -3.73% |
| COc1ccc(NC(=O)c2ccco2)cc1NC(=O)COc1ccccc1[N+](=O)[O-] | 12.7% |
| O=C(O)CC1(CC(=O)NCc2ccc(-c3cccs3)cc2)CCCCC1 | 2.95% |
| COc1cc(N)ccc1-c1cc2ccccc2oc1=O | 7.64% |

| SMILES | hERG current change (%, negative = inhibition) at 10uM |
| --- | --- |
| O=C1C2C3C=CC(C4CC34)C2C(=O)N1Cc1ccco1 (stereo not shown) | 4.37% |
| COc1cc(C(C)=O)ccc1Oc1cc(NN2CCCCC2)c([N+](=O)[O-])cc1[N+](=O)[O-] | -23.3% |
| O=C1NC(=Nc2ccccc2)S/C1=C/c1cccnc1 | 15.9% |
| COc1ccccc1C(=O)COC(=O)c1ccccc1O | 3% |
| NC(=O)CSc1oc(-c2ccco2)nc1S(=O)(=O)c1ccc(Br)cc1 | -22.7% |
| CCOP(=O)(CN(CC)CCNP(=O)(OCC)OCC)OCC | 6.87% |
| CC(C)c1ccc(C2=NN(c3ccccc3)C(=O)CC2)cc1 | -31.6% |
| CC(C)c1nnc(NC(=O)CCS(=O)(=O)c2nc(-c3cccs3)cc(C(F)(F)F)n2)s1 | 5.26% |
| CN1CCN(C(=O)C2=C[C@H](c3ccc(Br)cc3)C[C@H](OCCCCO)O2)CC1 | -47.7% |
| COC(=O)c1cc(=O)n(Cc2ccc(OC)cc2)c(=NCc2ccc(OC)cc2)s1 | 14% |
| O=C1NC2=C(C(=O)CCC2)C(c2ccc(OC(F)F)cc2)N1 (stereo not shown) | 10.3% |
| O=C1[C@H]2[C@@H](c3ccc(Cl)cc3)N3C(=O)N(c4cccc(F)c4)C(=O)[C@@]3(Cc3ccccc3)[C@H]2C(=O)N1C1CCCCC1 | 13.6% |
| O=C(NCc1cccc(Cl)c1)c1cnccn1 | -9.28% |
| Nc1nc2n(c1C(=O)c1ccccc1)CCC2 | -10.5% |
| CCCCCCCCNC(=O)/C(C#N)=C/c1ccc(SC)cc1 | 7.54% |
| C=CCc1c(N(CC)CC)nc(C)[nH]c1=O | -3.26% |
| CC(C)c1onc(C(=O)N2CCCCCC2)c1[N+](=O)[O-] | 6.89% |
| O=C(CCN1C(=O)C2C3C=CC(C3)C2C1=O)Oc1ccc2ccccc2c1 (stereo not shown) | 17.4% |
| CC(C)(C)n1nc2c(c1NC(=O)c1cc3ccccc3o1)CS(=O)(=O)C2 | -16.8% |
| Cn1c(CNC(=O)CNC(=O)Cc2ccc(Cl)cc2)cc(=O)n(C)c1=O | 18.9% |
| CN(C(=O)CSc1nnc(-c2ccc3c(c2)OCO3)o1)C1CCS(=O)(=O)C1 (stereo not shown) | -23.7% |
| COCCN(C(=O)CNC(=O)c1ccco1)C(C(=O)NC1CCCCC1)c1cccnc1 (stereo not shown) | 20.1% |
| COc1ccc(NC(=O)c2ccc[n+]([O-])c2)cc1 | 10.5% |

| SMILES | hERG current change (%, negative = inhibition) at 10uM |
| --- | --- |
| Cc1ccc2c(c1)C(=O)C(=O)N2CC(=O)Nc1ccc(N2CCOCC2)cc1 | -6.96% |
| Cc1cc(Cl)ccc1C(=O)C1CCCN(C(=O)c2cncs2)C1 (stereo not shown) | -25.8% |
| CC(=O)Nc1ccc(S(=O)(=O)NCCN2CCNC2=O)cc1Cl | 12.4% |
| Nc1c(Cl)cc(-c2[nH]c3cc(C(=O)NCCO)ccc3c(=O)c2O)cc1Cl | 12.1% |
| O=C(NNC(=O)c1cc2cc3ccccc3nc2s1)c1ccc(F)cc1 | 2.97% |
| CN(C)C(=O)c1cc(C(=O)c2ccc(Cl)cc2Cl)c[nH]1 | 0.176% |
| O=C1CC(c2nc3ccccc3[nH]2)CN1Cc1ccccc1 (stereo not shown) | 5.44% |
| CCN(CC)S(=O)(=O)c1ccc2c(c1)nc(CCC(=O)Nc1ccc3c(c1)OCO3)n2CC | -0.447% |
| CC(=O)Nc1ccc(NC(=O)CSc2ccc3nnc(-c4cccnc4)n3n2)cc1 | 2.95% |
| Cc1nnc2c(-c3ccccc3)nc3ccccc3n12 | -2.02% |
| Cc1ccc(O)c(NC(=O)COc2cc(C)ccc2C)c1 | 0.625% |
| CC(=O)OC/C=C(\C)CCC=C(C)C | -0.25% |
| CCOC(=O)C1=C(COC(=O)Cc2ccccc2F)NC(=O)NC1C (stereo not shown) | 8.16% |
| COc1ccc2[nH]c3c(c2c1)CCN=C3C | -18.2% |
| COC(=O)CCS(=O)(=O)c1nc(-c2ccccc2)cc(C(F)(F)F)n1 | -13% |
| O.O=C(O)c1cc(S(=O)(=O)O)ccc1O | 16% |
| COc1ccc(C(=O)NC2CCN(C(=S)Nc3cccc(C)c3)CC2)cc1 | -8.21% |
| COc1ccc(S(=O)(=O)Nc2ccc3cn[nH]c3c2)cc1C | -3.24% |
| COc1ccc(CCN2C(=O)CC(Cc3cccc(C)c3)C2=O)cc1OC (stereo not shown) | -11.3% |
| O=C(Cn1cccc1C(=O)c1ccccc1)NCc1cccnc1 | -3.6% |
| COc1ccc(CCNC(=O)c2cc(C3CC3)on2)cc1OC | 13.9% |
| Fc1cccc(Cl)c1CSc1ncn[nH]1 | -18.4% |
| CCOC(=O)C1CCN(c2cc3c(cc2NC(=O)c2ccccc2OCC)n(C)c(=O)n3C)CC1 | -11.6% |

| SMILES | hERG current change (%, negative = inhibition) at 10uM |
| --- | --- |
| CC(=O)c1ccc(C#CC(C)(C)O)s1 | 21.5% |
| CCOc1ccc(NC(=O)c2nnn(CC(=O)Nc3ccccc3OC)c2N)cc1 | 3.64% |
| CCOC(=O)C(=CNc1cc(C)nn1-c1ccccc1)C(=O)OCC | -27.4% |
| COc1ccccc1N1CCN(/N=C/c2ccc(OC)c(OC)c2OC)CC1 | -5.81% |
| CN(C)CCNC(=O)COc1ccc(Cl)cc1Cl | -18.2% |
| Cc1cc(NCCCn2ccnc2)n2nc(C)c(-c3ccccc3)c2n1 | -72.8% |
| Cc1ccc(S(=O)(=O)Nc2ccc(C(=O)N3CCN(c4ccccc4O)CC3)cc2)cc1[N+](=O)[O-] | -10.8% |
| O=C(CSc1nnc(NC(=O)c2c(F)cccc2F)s1)NCc1ccccc1 | 11.5% |
| CCOc1ccc(NC(=S)Nc2ccccc2C2(C)CC2)cc1 | 14.6% |
| O=C(Cc1ccccc1Cl)Nc1cccc(S(=O)(=O)N2CCOCC2)c1 | -8.22% |
| Cn1nc(OC(=O)Nc2ccccc2)cc1C(F)(F)F | 9.59% |
| O=C(CNC(=O)c1cccs1)Nc1ccncc1 | 8.67% |
| Cl.O=C(C(c1ccccc1)c1ccccc1)N1CCN(CC(O)COc2ccccc2)CC1 (stereo not shown) | -13.7% |
| O=C(Nc1cc(Cl)cc(Cl)c1)c1cccnc1 | -2.75% |
| O=C(NCc1ccncc1)Nc1cc(Cl)ccc1Cl | -8.6% |
| COc1ccccc1-c1coc2cc(OCC(=O)OCc3ccccc3)ccc2c1=O | 25% |
| N/C(CC(=O)NC1CCCCC1)=N\OCC(=O)Nc1ccc(Cl)c(Cl)c1 | 1.91% |
| COc1ccc2c(c1)NC(c1ccc(N(C)C)cc1)c1cccn1-2 (stereo not shown) | 12.5% |
| COc1ccccc1NC(=O)CSc1nnc(-c2ccccc2)o1 | -0.144% |
| CSc1ccccc1NC(=O)CN(C)C(=O)Cc1c[nH]c2ccccc12 | -0.585% |
| COc1ccc(S(=O)(=O)NC2CC2)cc1Br | 25.7% |
| CC(C)NC(=S)N/N=C/c1cc(Br)ccc1O | 17.5% |
